Reference: PubChem BioAssay AID900 (National Center for Advancing Translational Sciences (NCATS), 2007)
The campaign covered roughly 75,000 compounds. About 20 (0.03%) were called active. Inconclusive results, whose numbers are uncertain, are shown with a selection of clear calls. The call rests on the fitted dose curve; in most records, active means well fitted inhibition curve with a large enough effect; inconclusive means small, poorly fitted or top-dose-only effect; inactive means flat fitted curve, though single readings scatter. Potencies of inconclusive entries are left out as doubtful fits.

The compounds below were run against Caspase-1 (Homo sapiens) (UniProt P29466) (assay: qHTS Assay for Allosteric/Competitive Inhibitors of Caspase-1). Settings: Caspase-1 enzyme, Ac-WEHD-AFC fluorogenic rate; activity change, negative = inhibition: at 57.5 µM (top of the series) unless noted.
Description: NIH Molecular Libraries Screening Centers Network [MLSCN]
NIH Chemical Genomics Center [NCGC]
PI Name: Dr. James Wells,
Dr. Enrique Perez-Paya, Dr.Janice Williams, Dr. Dennis Wolan, a person
The caspases (Cysteine Aspartyl Protease) comprise a related family of 14 dimeric proteases that are critical mediators of apoptosis (programmed cell death) and inflammation. The caspases represent an important class of drug targets for stroke, ischemia, cancer and inflammatory diseases. […] One goal of this project was to identify compounds that act as allosteric inhibitors via stabilizing the procaspase form of the enzyme. Previous work in Well's laboratory has shown that such allosteric inhibitors can be identified and these act by binding at the dimer interface of enzyme (Hardy, Lam et al., 2004).
The biochemical assay was configured using purified caspase 1 at a high enzyme concentration to promote formation of the homodimers and thus facilitate the identification of allosteric inhibitors. The overall goal was to identify reversible inhibitors with better drug-like properties than the currently available set of aspartyl-containing peptidomimetics that covalently bind the active site. Caspase 1 was assayed using the profluorescent substrate Ac-WEHD-AFC. After initiation of the assay with substrate the plates were rapidly read using an automated robotic system (Kalypsys, Inc.) to maintain consistent timing. A kinetic mode of detection was used where the initial rate was collected (estimated final product formation was ~10%). Compounds were screened as a concentration-titration series that ranged from 57 uM to 0.7 nM. Below is the protocol used for caspase 1.
NCGC Assay Protocol Summary:
Caspase 1 was prepared in buffer (50 mM HEPES pH 7.5, 50 mM KCl, 200 mM NaCl, 10 mM DTT, 0.1% CHAPS) at a concentration of 66.6 nM and 3 uL was dispensed to all wells using black solid Kalypsys 1536-well plates. 20 nL of DMSO containing compounds was added using a pin-tool (Kalypsys Inc.) to columns 5-48. Then 20 nL of DMSO solution from a control plate was added to columns 1-4. Controls were: Column 1, 16 point titration with each concentration in duplicate (1:1 dilutions in DMSO; final starting concentration was 57 uM) of the caspase 1 inhibitor Ac-WEHD-CHO (Alexis Biochemicals); Column 2, a 16 point titration with each concentration in duplicate of the free AFC fluorophore prepared in DMSO (Alexis Biochemicals), final starting was 40 uM; Column 3 neutral (DMSO only) control; Column 4: DMSO alone, to serve as a negative control (no substrate was added). Then 1 uL of 20 uM the substrate Ac-WEHD-AFC (Alexis Biochemicals) prepared in the same buffer was dispensed to all wells except columns 2 and 4 and the plates were immediately transferred (< 1 min) to the Viewlux. The plates were then exposed using 405 nm excitation/520 nm emission filters for 4 sec and read at 20 sec intervals for 3 min. Final enzyme concentration was 50 nM and the final substrate concentration was 5 uM.
Concentration-response curves were fitted to the data calculated from slope of the linear regression of fluorescent intensity versus time (the rate). The concentration-effect curves were then classified based on curve quality (r2), response magnitude and degree of measured activity. […] Inconclusive compounds had appreciable concentration-dependent effects on both the measured rate and the interpolated basal fluorescence intensity at the start of the reaction but where the basal fluorescent intensity was marginal (e.g. < 10-fold). Inconclusive compounds also encompass highly fluorescent compounds (>100-fold increases in fluorescent intensities values relative to controls) where artificial concentration-dependent decreases in the rate occurred at high compound concentrations due to fluorescent interferences.
Keywords: Caspase 1, proteases, profluorescent, MLSMR, MLSCN, NIH Roadmap, qHTS, NCGC
Potency means the concentration at half of the fitted maximal effect; tags describe the fitted curve by direction and shape or compound fluorescence and quenching.
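Wherever activity change, negative = inhibition is given: plate controls were vehicle for no effect and no substrate for full effect.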

| SMILES | Potency | activity change, negative = inhibition |
| --- | --- | --- |
| Cc1cc(N)c(-n2cc3c(=O)n(C)c(=O)n(C)c3c2)cc1C | inconclusive [inhibitor, partial curve] | – |
| Cc1cc(N2CCCCC2)nc(SCC(=O)c2ccccc2)n1 | inactive | – |
| Cc1ccc2c(c1)c1cccc3c1n2CCN3CCC(N)=O | inconclusive [inhibitor, partial curve] | – |
| COc1cccc(Oc2coc3c(CN4CCOCC4)c(O)ccc3c2=O)c1 | inconclusive [inhibitor, partial curve] | – |
| COCCn1c(=O)c(-c2ccccc2)nc2cnc(Oc3cccc(Cl)c3)nc21 | inconclusive [inhibitor, partial curve] | – |
| CCc1c(C)sc(NC(=O)c2ccc(Br)o2)c1C(=O)OC | inconclusive [inhibitor, single point] | – |
| O=c1c(-c2ccccc2)coc2cc(O)cc(O)c12 | inactive | – |
| COC(=O)C1=C(C)NC2=C(C(=O)CCC2)C1c1ccsc1 (configuration not stated) | inconclusive [inhibitor, partial curve] | – |
| COc1ccc(NC(=O)CN2c3cccc4cccc(c34)S2(=O)=O)cc1 | inactive | – |
| CCCN(CCC)c1nc(C)cc(C(C#N)c2nc3ccccc3o2)n1 (configuration not stated) | inconclusive [inhibitor, full curve] | – |
| CC1(C)CC(=O)C2=C(C1)NC(SCC(=O)Nc1ccccc1)=C(C#N)C21CCCCC1 | inconclusive [inhibitor, single point] | – |
| O=c1c(-c2ccc(Cl)cc2)nc2cnc(Nc3ccccc3)nc2n1C1CC1 | inconclusive [inhibitor, partial curve] | – |
| NCCC(=O)N[C@H](Cc1cnc[nH]1)C(=O)O | inactive | – |
| COCC(C)NC(=O)c1ccc(N(C)C)cc1 (configuration not stated) | inactive | – |
| Cc1cc(C(=O)CSc2nncs2)c(C)n1-c1c(C)n(C)n(-c2ccccc2)c1=O | inactive | – |
| Cc1ccc(C)c(S(=O)(=O)c2c(N)n(/N=C/c3ccco3)c3nc4ccccc4nc23)c1 | inconclusive [inhibitor, partial curve] | – |
| CC1CCC/C(=C\Nc2ccc(O)cc2)C1=O (configuration not stated) | inconclusive [inhibitor, single point] | – |
| CSc1ccccc1N=Cc1nc(-c2ccccc2)oc1O | inconclusive [inhibitor, partial curve] | – |
| COC(=O)C1C(=O)C2=C(CC1C)NC(C)=C(C(=O)OCCOc1ccccc1)C2c1ccc(C)o1 (configuration not stated) | – | inconclusive: -16.7% [inhibitor] |
| CCOc1cc(C2C3=C(CCCC3=O)N(C)C3=C2C(=O)CCC3)cc(Cl)c1O | inconclusive [inhibitor, partial curve] | – |
| COCCNc1ncnc2ccc(-c3ccoc3)cc12 | inconclusive [inhibitor, partial curve] | – |
| O=C(Nc1ccc2c(c1)OCO2)C1CCCN(c2nc3ccccc3s2)C1 (configuration not stated) | inconclusive [inhibitor, partial curve] | – |
| COc1ccc(-n2c(=O)c(-c3cccc(C#N)c3)nc3cnc(N4CCNCC4)nc32)cc1 | inconclusive [inhibitor, partial curve] | – |
| COc1ccc(Oc2ncc3nc(-c4ccc(OC)cc4)c(=O)n(C4CC4)c3n2)cc1 | inconclusive [fluorescent, partial curve] | – |

| SMILES | Potency | activity change, negative = inhibition |
| --- | --- | --- |
| COc1ccccc1OCC(O)Cn1c(=N)n(Cc2ccccc2)c2ccccc21 (configuration not stated) | inactive | – |
| COc1ccc2[nH]c(=O)c(C(c3nnnn3C3CCCCC3)N3CCN(C)CC3)cc2c1 (configuration not stated) | inconclusive [inhibitor, partial curve] | – |
| CC1(C)CC(=O)c2cc(OCC(=O)NCCN3CCCc4ccccc43)ccc2O1 | inconclusive [inhibitor, partial curve] | – |
| Cc1ccc2nc(Nc3ccc4[nH]c(=O)[nH]c4c3)c(-n3nc(C)cc3C)nc2c1 | inconclusive [inhibitor, partial curve] | – |
| CCCn1cnc2c(c1=O)c1nc3ccccc3nc1n2CCC1=CCCCC1 | inactive | – |
| Cc1ccc(Nc2nc(N3CCOCC3)c3ccccc3n2)cc1 | inactive | – |
| CCSc1nnc(NC(=O)c2ccc(C)o2)s1 | inactive | – |
| C=CCOc1cccc(C2C(C(=O)c3ccc(C)o3)=C(O)C(=O)N2c2nccs2)c1 (configuration not stated) | inconclusive [inhibitor, single point] | – |
| Cc1ccc2cc(CN(Cc3ccc4c(c3)OCO4)Cc3nnnn3Cc3ccco3)c(=O)[nH]c2c1C | – | inconclusive: -17.4% [inhibitor] |
| O=C(CCc1nc2ccccc2[nH]1)N1CCN(C(=O)c2ccco2)CC1 | inactive | – |
| COc1cccc(C2=NC(C)(C)NC(c3ccccc3O)C2)c1 (configuration not stated) | inconclusive [inhibitor, partial curve] | – |
| Cc1ccc(-c2cc(C(F)F)n3ncc(C(=O)N4CCN(c5ccccn5)CC4)c3n2)cc1 | inconclusive [inhibitor, single point] | – |
| Fc1ccc(Nc2nc(N3CCOCC3)c3ccccc3n2)cc1 | – | inconclusive: -16.3% [inhibitor] |
| CN(C(=O)C1CCN(S(=O)(=O)c2cccs2)CC1)C1CCCCC1 | – | inconclusive: -17% [inhibitor] |
| O=C(c1ccc(F)cc1)c1ccc(N2CCCC2)cc1 | inconclusive [inhibitor, partial curve] | – |
| O=C(c1ccco1)N1C(=O)c2cccc3cccc1c23 | – | inconclusive: -16.2% [inhibitor] |
| CN(C)c1ncc2nc(CCc3ccccc3)c(=O)n(C[C@H]3CCCO3)c2n1 | inconclusive [fluorescent, partial curve] | – |
| O=C(O)CCCNc1cc(N2CCC3(CC2)OCCO3)c2noc3c2c1C(=O)c1ccccc1-3 | inconclusive [inhibitor, single point] | – |
| Oc1ccccc1C1=Nc2ccccc2N=C(c2ccco2)C1 | inconclusive [inhibitor, single point] | – |
| O=C(/C=C/c1ccc2c(c1)OCO2)c1cccs1 | inconclusive [inhibitor, partial curve] | – |
| CCOC(=O)c1c(NC(=O)c2cccs2)sc2c1CC(C)(C)OC2 | inconclusive [inhibitor, single point] | – |
| CCOC(=O)C1=C(C)NC(C)=C(C(=O)OCC)C1c1ccccn1 | inconclusive [inhibitor, partial curve] | – |
| O=C(CC1Nc2ccccc2NC1=O)c1ccccc1 (configuration not stated) | – | inconclusive: -18.8% [inhibitor] |
| CC1C2CC(CC1(C)C)N(C(=O)Nc1ccc3nccnc3c1)C2 (configuration not stated) | inconclusive [inhibitor, partial curve] | – |

| SMILES | Potency | activity change, negative = inhibition |
| --- | --- | --- |
| COc1ccc2[nH]c(=O)c(-c3noc(-c4ccc(F)cc4)n3)cc2c1 | inconclusive [inhibitor, partial curve] | – |
| CS(=O)(=O)N1CCC[C@@]2(CCN(c3ccccn3)C2)C1 | inactive | – |
| Cc1noc(C)c1-c1ccc2ncnc(NCCN3CCOCC3)c2c1 | inactive | – |
| COc1ccc(C)cc1NC(=O)C1CCN(S(=O)(=O)c2cccc3cccnc23)CC1 | – | inconclusive: -17.8% [inhibitor] |
| Cc1cnc(CNc2ncnc3ccc(-c4ccccc4C)cc23)cn1 | inactive | – |
| CCOC(=O)C1=C(N)n2c(s/c(=C\c3ccco3)c2=O)=C(C(=O)OCC)C1c1ccco1 (configuration not stated) | – | inconclusive: -19.4% [inhibitor] |
| COc1cc(NC(=O)c2onc(C)c2Cl)c(OC)cc1Cl | inconclusive [inhibitor, partial curve] | – |
| CC(=O)c1cccc(NC(=O)c2cc(C(C)C)on2)c1 | inactive | – |
| Cc1noc(/C=C/N(C)C)c1S(=O)(=O)N1CCCC(C(=O)NCc2ccccc2Cl)C1 (configuration not stated) | – | inconclusive: -17.8% [inhibitor] |
| N#CCCCSc1nnc(-c2ccc(Cl)cc2)n1-c1ccccc1 | inactive | – |
| CCc1ccccc1N(CC(=O)NCc1ccco1)C(=O)c1snc(C(N)=O)c1N | inconclusive [inhibitor, single point] | – |
| N#Cc1c(SCC(N)=O)nc(-c2ccccc2)c2c1CCCC2 | inactive | – |
| CCOC(=O)CNc1c(-c2ccc(O)cc2)nc2ccccn12 | – | inconclusive: -17.5% [inhibitor] |
| O=c1cnnc(SCCc2ccccc2)[nH]1 | inconclusive [inhibitor, partial curve] | – |
| CCc1c(C)nc2cc(-c3ccc(OC)cc3)[nH]n2c1=O | inactive | – |
| O=C(CC1NC(=O)NC1=O)Nc1cccc2ccccc12 (configuration not stated) | inconclusive [inhibitor, partial curve] | – |
| O=C1CC(c2ccc(F)cc2)Cc2nc(N3CCc4ccccc43)ncc21 (configuration not stated) | inconclusive [inhibitor, partial curve] | – |
| O=C(Nc1ccccc1)C1=C(N2CCOCC2)/C(=C/c2cccnc2)CC1 | – | inconclusive: -18.4% [inhibitor] |
| CSc1nnc2n(-c3ccccc3)c(=O)c3c4c(sc3n12)CCC4 | inactive | – |
| Nc1ncnc2nn([C@H]3O[C@@H](CO)[C@@H](O)[C@H]3O)nc12 | – | inactive: -8.24% [at 11.5 µM] |
| O=c1nc2s/c(=C\c3ccco3)c(=O)n2nc1Cc1ccccc1 | inconclusive [inhibitor, partial curve] | – |
| COc1ccc2oc(=N)c(C(=O)Nc3ccccc3)cc2c1 | inconclusive [inhibitor, partial curve] | – |
| COC(=O)c1ccc(Oc2cc(C)nc(-n3nc(C)cc3C)n2)cc1 | inactive | – |
| O=C(OCc1ccccc1)C1CCCN1C(=O)c1cccs1 (configuration not stated) | inconclusive [inhibitor, single point] | – |
